Measurements as given in the supplement of paper PMC9174493.
The list shows a part of the results. Single values of this set are uncertain. Values with irradiation are relative to irradiated vehicle.

Columns and labels:
A549-Dual [1] = assay: NF-kB reporter (SEAP) activity, viability-corrected, relative to vehicle (fold change vs vehicle); higher = more activation of STING-IRF / NF-kB immune response reporter
A549-Dual [2] = assay: ISRE reporter (Lucia luciferase) activity, viability-corrected, relative to vehicle (fold change vs vehicle); higher = more activation of STING-IRF / NF-kB immune response reporter
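For NF-kB reporter (SEAP) activity, viability-corrected, relative to vehicle in this document: viability correction based on the alamar blue assay, with concentrations leaving 10% survival or less dropped.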

Row | SMILES | NF-kB reporter (A549-Dual [1]; 0.1 µM, irradiation: 8 Gy/4 fr) | NF-kB reporter (A549-Dual [1]; 0.1 µM, irradiation: none) | NF-kB reporter (A549-Dual [1]; 0.3 µM, irradiation: 8 Gy/4 fr) | NF-kB reporter (A549-Dual [1]; 0.3 µM, irradiation: none) | NF-kB reporter (A549-Dual [1]; 1 µM, irradiation: 8 Gy/4 fr) | NF-kB reporter (A549-Dual [1]; 1 µM, irradiation: none) | NF-kB reporter (A549-Dual [1]; 3 µM, irradiation: 8 Gy/4 fr) | NF-kB reporter (A549-Dual [1]; 3 µM, irradiation: none) | NF-kB reporter (A549-Dual [1]; 10 µM, irradiation: 8 Gy/4 fr) | NF-kB reporter (A549-Dual [1]; 10 µM, irradiation: none) | ISRE reporter (A549-Dual [2]; 0.1 µM, irradiation: 8 Gy/4 fr) | ISRE reporter (A549-Dual [2]; 0.1 µM, irradiation: none) | ISRE reporter (A549-Dual [2]; 0.3 µM, irradiation: 8 Gy/4 fr) | ISRE reporter (A549-Dual [2]; 0.3 µM, irradiation: none) | ISRE reporter (A549-Dual [2]; 1 µM, irradiation: 8 Gy/4 fr) | ISRE reporter (A549-Dual [2]; 1 µM, irradiation: none) | ISRE reporter (A549-Dual [2]; 3 µM, irradiation: 8 Gy/4 fr) | ISRE reporter (A549-Dual [2]; 3 µM, irradiation: none) | ISRE reporter (A549-Dual [2]; 10 µM, irradiation: 8 Gy/4 fr) | ISRE reporter (A549-Dual [2]; 10 µM, irradiation: none)
1 | O=c1c(-c2ccc(O)cc2)coc2cc(O)cc(O)c12 [Genistein] | 0.997 | 0.993 | 1.15 | 1.06 | 0.838 | 1 | 1.01 | 0.867 | 0.971 | 1.28 | 0.958 | 0.937 | 1.3 | 1.17 | 0.918 | 0.873 | 1 | 0.808 | 0.905 | 4.73
2 | CC(=O)OC1(C(C)=O)CCC2C3CC(C)C4=CC(=O)C=CC4(C)C3(F)C(O)CC21C (stereo not given) [Fluorometholone Acetate] | 0.859 | 1.26 | 1.17 | 1.08 | 1.17 | 1.14 | 1.16 | 1.03 | 0.624 | 1.19 | 0.0679 | 0.254 | 0.0676 | 0.251 | 0.0848 | 0.268 | 0.0863 | 0.329 | 0.0836 | 0.337
3 | Cc1nc(Nc2ccc(F)cc2)nc(N2CCc3ccccc3C2C)c1C.Cl (stereo not given) [Revaprazan Hydrochloride] | 1.03 | 1 | 0.989 | 0.787 | 1.03 | 0.787 | 0.977 | 0.834 | 0.692 | 0.831 | 0.929 | 0.817 | 0.926 | 0.545 | 0.478 | 0.471 | 0.574 | 0.799 | 0.172 | 0.701
4 | CC(=O)Nc1ccccc1 [Acetanilide] | 0.93 | 1.55 | 1.15 | 2.11 | 1.5 | 1.21 | 1.63 | 1.18 | 1.12 | 0.919 | 1.07 | 1.25 | 1.02 | 1.25 | 0.988 | 1.15 | 1.06 | 1.21 | 0.965 | 0.833
5 | Cc1cnc(NC(=O)C2=C(O)c3ccccc3S(=O)(=O)N2C)s1 [Meloxicam] | 0.745 | 0.479 | 0.486 | 0.61 | 0.526 | 0.53 | 0.442 | 0.563 | 0.429 | 0.519 | 0.871 | 0.68 | 0.585 | 0.883 | 0.545 | 0.872 | 0.605 | 0.983 | 0.559 | 0.561
6 | CC1(C)C2CCC1(C)C(O)C2 (stereo not given) [Borneol] | 0.978 | 1.38 | 1.1 | 1.75 | 1.3 | 1.24 | 1.1 | 1.09 | 1.02 | 0.947 | 1.13 | 1.24 | 1.16 | 1.18 | 1.1 | 1.09 | 1.12 | 1.17 | 1.07 | 0.855
7 | CC1OC(n2cc(F)c(=O)[nH]c2=O)C(O)C1O (stereo not given) [Doxifluridine] | 1.01 | 1.27 | 1.2 | 1.64 | 1.58 | 1.12 | 1.93 | 1.11 | 1.15 | 1.2 | 1.07 | 1.15 | 1.06 | 1.25 | 1.06 | 1.07 | 1.1 | 1.02 | 1.08 | 0.762
8 | CNCC(O)C(O)C(O)C(O)CO.Cc1c(Nc2ncccc2C(=O)O)cccc1C(F)(F)F [Flunixin Meglumin] | 0.909 | 1.15 | 0.978 | 1.12 | 1.14 | 0.889 | 1.38 | 0.926 | 0.924 | 0.839 | 0.998 | 0.967 | 0.752 | 0.845 | 0.785 | 0.919 | 0.843 | 0.904 | 0.681 | 0.888
9 | CNCc1ccc(-c2[nH]c3cc(F)cc4c3c2CCNC4=O)cc1.O=P(O)(O)O | 1.01 | 1.09 | 1.04 | 1.28 | 0.844 | 1.07 | 0.798 | 0.993 | 0.763 | 1.04 | 0.844 | 1.08 | 0.906 | 1.06 | 0.761 | 0.98 | 0.532 | 0.719 | 0.499 | 0.674
10 | Cc1cc(C(C)(C)C)cc(C)c1CC1=NCCN1 [Xylometazoline] | 0.774 | 0.988 | 0.854 | 0.872 | 0.863 | 0.819 | 1.13 | 0.868 | 0.913 | 0.949 | 0.784 | 0.827 | 0.806 | 0.673 | 0.696 | 0.692 | 0.793 | 0.873 | 1.04 | 0.999
11 | CC(C)c1ccc2oc3nc(N)c(C(=O)O)cc3c(=O)c2c1 [Amlexanox] | 0.857 | 1.37 | 0.925 | 1.05 | 1.04 | 0.872 | 1.05 | 0.759 | 1.04 | 1 | 1.03 | 0.879 | 0.86 | 1.05 | 0.899 | 0.989 | 0.914 | 0.934 | 0.915 | 0.791
12 | COc1cc(OC)cc(N(CCNC(C)C)c2ccc3ncc(-c4cnn(C)c4)nc3c2)c1 | 1.02 | 1 | 0.766 | 1.04 | 0.872 | 1.32 | 0.864 | 1.19 | 0.943 | 0.921 | 0.76 | 0.763 | 0.793 | 0.944 | 0.845 | 1.22 | 0.893 | 1.31 | 1.06 | 1.07
13 | CC(=O)N1CC(O)CC1C(=O)O (stereo not given) [Oxaceprol] | 0.947 | 0.976 | 1.17 | 0.689 | 0.971 | 0.767 | 1.27 | 0.819 | 0.751 | 0.943 | 0.962 | 0.72 | 0.901 | 0.824 | 0.724 | 0.751 | 0.773 | 0.807 | 0.792 | 0.867
14 | O=C(/C=C/c1ccc(O)c(O)c1)OC(Cc1ccc(O)c(O)c1)C(=O)O (stereo not given) [Rosmarinic acid] | 1.06 | 1.31 | 0.864 | 1.54 | 1.04 | 1.43 | 1.12 | 1.5 | 1.06 | 1.09 | 0.983 | 0.848 | 0.782 | 1.1 | 0.725 | 1.32 | 0.76 | 1.31 | 0.676 | 0.862
15 | CNC(=O)c1ccccc1Sc1ccc2c(/C=C/c3ccccn3)n[nH]c2c1 [Axitinib] | 1.01 | 0.961 | 0.98 | 1.14 | 0.968 | 1.25 | 0.824 | 1.12 | 0.863 | 1.11 | 0.975 | 1.22 | 0.989 | 1.67 | 0.833 | 2.28 | 0.373 | 1.24 | 0.411 | 1.35
16 | O=c1c(O)c(-c2ccc(O)c(O)c2)oc2cc(O)cc(O)c12 [Quercetin] | 1.24 | 2.46 | 1.51 | 2.48 | 2.22 | 1.49 | 2.26 | 1.57 | 1.53 | 1.34 | 1.3 | 1.89 | 1.23 | 1.79 | 1.52 | 1.2 | 1.18 | 0.931 | 0.629 | 0.879
17 | O=C(/C=C/C=C/c1ccc2c(c1)OCO2)N1CCCCC1 [Piperine] | 1.19 | 1.27 | 1.13 | 1.29 | 1.09 | 1.95 | 1.03 | 1.35 | 0.92 | 1.27 | 0.98 | 1.2 | 1.02 | 0.922 | 0.963 | 1.1 | 0.79 | 0.678 | 0.802 | 0.926
18 | CC1(C)OC2CC3C4CCC5=CC(=O)C=CC5(C)C4(F)C(O)CC3(C)C2(C(=O)CO)O1 (stereo not given) [Triamcinolone Acetonide] | 0.575 | 1.21 | 1.05 | 1.28 | 1.23 | 0.928 | 1.22 | 0.887 | 1 | 0.776 | 0.0575 | 0.267 | 0.0549 | 0.268 | 0.057 | 0.317 | 0.0498 | 0.397 | 0.0565 | 0.293
19 | O=NN(CCCl)C(=O)NC1CCCCC1 [Lomustine] | 0.866 | 1.11 | 0.932 | 1.06 | 0.786 | 0.925 | 0.87 | 0.932 | 0.967 | 0.787 | 0.807 | 0.935 | 1.11 | 0.868 | 0.776 | 0.825 | 0.868 | 0.95 | 0.903 | 0.697
20 | CN1C(C(=O)Nc2ccccn2)=C(O)c2sc(Cl)cc2S1(=O)=O [Lornoxicam] | 1.62 | 1.41 | 1.49 | 1.27 | 1.27 | 1.33 | 1.48 | 1.27 | 1.65 | 1.21 | 0.987 | 1.13 | 1.15 | 0.934 | 0.981 | 0.975 | 0.999 | 0.935 | 1.31 | 0.893
21 | Cl.O=C(OCC(O)CO)c1ccccc1Nc1ccnc2cc(Cl)ccc12 (stereo not given) [Glafenine HCl] | 1.1 | 1.31 | 1.33 | 1.06 | 1.23 | 1.09 | 1.18 | 1.06 | 1.23 | 1.4 | 1.21 | 0.946 | 1.09 | 0.854 | 0.748 | 0.834 | 0.864 | 0.831 | 0.734 | 0.76
22 | C[S+](C)CCC(N)C(=O)O.[Cl-] (stereo not given) | 1.25 | 1.19 | 1.2 | 1.1 | 1.22 | 1.35 | 1.54 | 1.11 | 1.98 | 1.18 | 0.853 | 0.941 | 0.922 | 0.835 | 0.967 | 0.96 | 1.23 | 0.916 | 1.33 | 1.06
23 | O=C([O-])Cc1ccccc1Nc1c(Cl)cccc1Cl.[Na+] [Diclofenac Sodium] | 1.04 | 1.92 | 1.37 | 2.11 | 1.81 | 1.46 | 1.8 | 1.23 | 1.49 | 0.878 | 1.24 | 1.29 | 1.1 | 1.38 | 1.09 | 1.2 | 1.08 | 1.22 | 1.17 | 0.814
24 | COc1cc2c(Oc3ccc4[nH]c(C)cc4c3F)ccnc2cc1OCC1(N)CC1.Cl.Cl [Anlotinib (AL3818) dihydrochloride] | 0.903 | 0.927 | 0.815 | 1.01 | 0.977 | 1.24 | 1.14 | 1.38 | 1.32 | 1.72 | 0.933 | 1.22 | 0.93 | 0.905 | 0.922 | 1.07 | 1.05 | 2.3 | 0.98 | 3.19
